Read counts are not given, so values of variants with three or more changes are uncertain.
B1: LINE1-full (parent)
chain: UACGUAGGUGGUUUUCCCCUGAUAGUGCUAAGGGGGCCUGGAAGUUUGGACUGGGCAGAGCUCAACACAGCGUGGCAAAGUGGCUGUGGCUAGACUGCCUCUCUGGAUUCCUCGUCACUCAGCAGGGCAUCUCUGAGAGAAAUGCC

Variants of: B1
Assay: self-cleavage, relative activity (ratio to wild type); higher = more cleavage; in vitro, sequencing; the parent is a self-cleaving ribozyme
Variant UACGUAGGUGGUUUUCCCCUGAUAGUGCUAAGGGGGCCUGGAAGUUUGGACUGGGCAGAGCUCAACACAGCGUGGCAAAGCGGCAGUGGCUAGACUGCCUCUCUGGAUUCCUCGUCACCCAGCAGGGCAUCUCUGAGAGAAAAGCC [U81C U85A U119C U143A] has a self-cleavage of 0.34.
UACGUAGGUGGUUUUCCCCUGAUAGUGCUAAGGGGGCCUGGAAGUUUGGACUGGGCAGAGCUCAACACAGCGUGGCAAAGCGGCUGCGGCUAGACUGCCUCUCUGGAUUCCUCGUCACUCAGCAGGGCAUCUCUGCGAGAAAUGCC [U81C U87C A136C] gave a self-cleavage of 0.48.
In the case of UACGUAGGUGGUUUUCCCCUGAUAGUGCUAAGGGGGCCUGGAAGUUUGGACUGGGCAGAGCUCAACACAGCGUGGCAAAGCGGCUGUGGCUAGACAGCCUCUCUGGAUUCCUCGACACUCAGCAGGGCAUCUCUGAGAGAAAUGCC [U81C U96A U115A], the self-cleavage is reported as 0.07.
Work on UACGUAGGUGGUUUUCCCCUGAUAGUGCUAAGGGGGCCUGGAAGUUUGGACUGGGCAGAGCUCAACACAGCGUGGCAAAGCGGCUGUGGCUAGACCGCCUCUCUGGAUUCCUCGUCACUCAGCAGGGCAUCCCUGAGAGAAAUGCC [U81C U96C U132C] yielded a self-cleavage of 0.
Variant UACGUAGGUGGUUUUCCCCUGAUAGUGCUAAGGGGGCCUGGAAGUUUGGACUGGGCAGAGCUCAACACAGCGUGGCAAAGCGGCUGUGGCUAGACUGCCACUCUGGACUCCUCGUCACUCAGCAGGGCAUCUCUGAGAGAAAUGCC [U81C U100A U108C] has a self-cleavage of 0.68.
Variant UACGUAGGUGGUUUUCCCCUGAUAGUGCUAAGGGGGCCUGGAAGUUUGGACUGGGCAGAGCUCAACACAGCGUGGCAAAGCGGCUGUGGCUAGACUGCCGCUCUGGAUUCCUCGUCACUCAGCAGGGCAUCUCAGAGAGAAAUGCC [U81C U100G U134A] has a self-cleavage of 0.84.
With UACGUAGGUGGUUUUCCCCUGAUAGUGCUAAGGGGGCCUGGAAGUUUGGACUGGGCAGAGCUCAACACAGCGUGGCAAAGCGGCUGUGGCUAGACUGCCUCUCCGGAUUCCUCGUCACUCAGCAGGGCGUCUCUGAGAGAAAUGCC [U81C U104C A129G] the self-cleavage was 0.
For UACGUAGGUGGUUUUCCCCUGAUAGUGCUAAGGGGGCCUGGAAGUUUGGACUGGGCAGAGCUCAACACAGCGUGGCAAAGCGGCUGUGGCUAGACUGCCUCUCUGGACUCCUCGUCACUCAGCAGGGCAUCUCUGAGAGAAGCGCC [U81C U108C A142G U143C], the self-cleavage was 0.88.
In the case of UACGUAGGUGGUUUUCCCCUGAUAGUGCUAAGGGGGCCUGGAAGUUUGGACUGGGCAGAGCUCAACACAGCGUGGCAAAGCGGCUGUGGCUAGACUGCCUCUCUGGAUACCUCGUCACUCAGCAGGGCAUCUAUGAGAGAAAUGCC [U81C U109A C133A], the self-cleavage is reported as 1.11.
UACGUAGGUGGUUUUCCCCUGAUAGUGCUAAGGGGGCCUGGAAGUUUGGACUGGGCAGAGCUCAACACAGCGUGGCAAAGCGGCUGUGGCUAGACUGCCUCUCUGGAUCCCUCGUUACUCAGCAGAGCACCUCUGAGAGAAAUGCC [U81C U109C C116U G126A U130C] gave a self-cleavage of 1.36.
Work on UACGUAGGUGGUUUUCCCCUGAUAGUGCUAAGGGGGCCUGGAAGUUUGGACUGGGCAGAGCUCAACACAGCGUGGCAAAGCGGCUGUGGCUAGACUGCCUCUCUGGAUUCCUCGCCACUCAGCAGGGCAUCCCUGAGAGAAAUGCC [U81C U115C U132C] yielded a self-cleavage of 1.97.
With UACGUAGGUGGUUUUCCCCUGAUAGUGCUAAGGGGGCCUGGAAGUUUGGACUGGGCAGAGCUCAACACAGCGUGGCAAAGCGGCUGUGGCUAGACUGCCUCUCUGGAUUCCUCGUCACUCAGCAGGGCACCUCUGGGAGAAAUGCC [U81C U130C A136G] the self-cleavage was 0.71.
UACGUAGGUGGUUUUCCCCUGAUAGUGCUAAGGGGGCCUGGAAGUUUGGACUGGGCAGAGCUCAACACAGCGUGGCAAAGCGGCUGUGGCUAGACUGCCUCUCUGGAUUCCUCGUCACUCAGCAGGGCACCCCUGAGAGAAAUGCC [U81C U130C U132C] showed a self-cleavage of 0.
In the case of UACGUAGGUGGUUUUCCCCUGAUAGUGCUAAGGGGGCCUGGAAGUUUGGACUGGGCAGAGCUCAACACAGCGUGGCAAAGGGGCUGUGGCUGGACUGCCUCUCUGGGUUCCUCGUCACUCAGCAGGGCAUCUCUGAGAGAAAUGCC [U81G A92G A107G], the self-cleavage is reported as 0.
With UACGUAGGUGGUUUUCCCCUGAUAGUGCUAAGGGGGCCUGGAAGUUUGGACUGGGCAGAGCUCAACACAGCGUGGCAAAGGGGCUGUGGCUAGGCUGCCUCUCUGGAAUCCUCGUCACUCAGCAGGGCAUCUCUGAGAGAAAUGCC [U81G A94G U108A] the self-cleavage was 0.41.
UACGUAGGUGGUUUUCCCCUGAUAGUGCUAAGGGGGCCUGGAAGUUUGGACUGGGCAGAGCUCAACACAGCGUGGCAAAGGGGCUGUGGCUAGGCUGCCUCUCUGGAUUCCACGUCACUCAGCAGGGCAUCUCUGAGAGAAAUGCC [U81G A94G U112A] showed a self-cleavage of 0.56.
UACGUAGGUGGUUUUCCCCUGAUAGUGCUAAGGGGGCCUGGAAGUUUGGACUGGGCAGAGCUCAACACAGCGUGGCAAAGGGGCUGUGGCUAGACUGCCUCUCUGGAUUCCUCGUCACUCAGCAGGGCGUCUCUGAGAGAAGUGCC [U81G A129G A142G] gave a self-cleavage of 2.19.
Work on UACGUAGGUGGUUUUCCCCUGAUAGUGCUAAGGGGGCCUGGAAGUUUGGACUGGGCAGAGCUCAACACAGCGUGGCAAAGGGGCAGUGGCUAGACUGCCUCUCUGGAUUCCUAGUCACUCAGCAGGGCAUCUCUGAGAGAAAUGCC [U81G U85A C113A] yielded a self-cleavage of 0.14.
UACGUAGGUGGUUUUCCCCUGAUAGUGCUAAGGGGGCCUGGAAGUUUGGACUGGGCAGAGCUCAACACAGCGUGGCAAAGGGGCUGUGGCUAGACAGCCUCUCUGGAUUCCCCGCCACUCAGCAGGGCAUCUCUGAGAGAAAUGCC [U81G U96A U112C U115C] showed a self-cleavage of 0.11.
For UACGUAGGUGGUUUUCCCCUGAUAGUGCUAAGGGGGCCUGGAAGUUUGGACUGGGCAGAGCUCAACACAGCGUGGCAAAGGGGCUGUGGCUAGACUGCCUCCCUGGAUUCCUCGACACUCAGCAGGGCUUCUCUGAGAGAAAUGCC [U81G U102C U115A A129U], the self-cleavage was 1.65.
UACGUAGGUGGUUUUCCCCUGAUAGUGCUAAGGGGGCCUGGAAGUUUGGACUGGGCAGAGCUCAACACAGCGUGGCAAAGUAGCUGUGGCUAGACUGCCUCUCUGGAUUCCUCGUCGCUCAGCAGGGCACCUCUGAGAGAAAUGCC [G82A A117G U130C] showed a self-cleavage of 2.3.
For UACGUAGGUGGUUUUCCCCUGAUAGUGCUAAGGGGGCCUGGAAGUUUGGACUGGGCAGAGCUCAACACAGCGUGGCAAAGUAGCUGUGGCUAGACUGCCUCUCUGGAUUCCUCGUCACUCAGCAGGGCAUCUCUGAGAGAGGUGCC [G82A A141G A142G], the self-cleavage was 1.31.
Variant UACGUAGGUGGUUUUCCCCUGAUAGUGCUAAGGGGGCCUGGAAGUUUGGACUGGGCAGAGCUCAACACAGCGUGGCAAAGUAGCUGCGACUAGACUGCCUCUCUGGAUUCCUCGUCACUCAGCAGGGCAUCUCUGAGAGAGAUGCC [G82A U87C G89A A141G] has a self-cleavage of 0.02.
Variant UACGUAGGUGGUUUUCCCCUGAUAGUGCUAAGGGGGCCUGGAAGUUUGGACUGGGCAGAGCUCAACACAGCGUGGCAAAGUAGCUGUGGCUAGACAGCCUCUCUGGAUUCCUCGUCACUCAGCAGGGCAUCUCUGAGCGAAAUGCC [G82A U96A A138C] has a self-cleavage of 0.1.
In the case of UACGUAGGUGGUUUUCCCCUGAUAGUGCUAAGGGGGCCUGGAAGUUUGGACUGGGCAGAGCUCAACACAGCGUGGCAAAGUAGCUGUGGCUAGACUGCCUCUCUGGAUUCCACGUCACUCAGCGUGGCAUCUCUGAGAGAAAUGCC [G82A U112A A124G G125U], the self-cleavage is reported as 1.15.
In the case of UACGUAGGUGGUUUUCCCCUGAUAGUGCUAAGGGGGCCUGGAAGUUUGGACUGGGCAGAGCUCAACACAGCGUGGCAAAGUAGCUGUGGCUAGACUGCCUCUCUGGAUUCCUCGACACUCAGCAGAGCAUCUCUGAGAGAGAUGCC [G82A U115A G126A A141G], the self-cleavage is reported as 2.25.
UACGUAGGUGGUUUUCCCCUGAUAGUGCUAAGGGGGCCUGGAAGUUUGGACUGGGCAGAGCUCAACACAGCGUGGCAAAGUCGCUGUGGCUAGACUGCCUCUCUGGACUCCUCGUCACUCAGCAGGGCAUCUCUGAGAGGAAUGCC [G82C U108C A140G] showed a self-cleavage of 2.53.
UACGUAGGUGGUUUUCCCCUGAUAGUGCUAAGGGGGCCUGGAAGUUUGGACUGGGCAGAGCUCAACACAGCGUGGCAAAGUGACUGUGGCUAGACUGCCUCUCUGGACUCCUCGUCACUCAGCAGGGCAUCUCUGAGAGAUAUGCC [G83A U108C A141U] showed a self-cleavage of 1.57.
UACGUAGGUGGUUUUCCCCUGAUAGUGCUAAGGGGGCCUGGAAGUUUGGACUGGGCAGAGCUCAACACAGCGUGGCAAAGUGACUGUGGCUAGACUGCCUCUCUGGAUUCCUCGACACUCAGCGGGGCGUCUCUGAGAGAAAUGCC [G83A U115A A124G A129G] showed a self-cleavage of 0.48.
In the case of UACGUAGGUGGUUUUCCCCUGAUAGUGCUAAGGGGGCCUGGAAGUUUGGACUGGGCAGAGCUCAACACAGCGUGGCAAAGUGACUGUGGCUAGACUGCCUCUCUGGAUUCCUCGUCACUCAGCAGGGCACCCCUGGGAGAAAUGCC [G83A U130C U132C A136G], the self-cleavage is reported as 1.21.
In the case of UACGUAGGUGGUUUUCCCCUGAUAGUGCUAAGGGGGCCUGGAAGUUUGGACUGGGCAGAGCUCAACACAGCGUGGCAAAGUGCCUGUGGCUAGACUGCCUUUCUGGAUUCCUUGUCACUCAGCAGGGCAUCUCUGAGAGAAAUGCC [G83C C101U C113U], the self-cleavage is reported as 1.02.
In the case of UACGUAGGUGGUUUUCCCCUGAUAGUGCUAAGGGGGCCUGGAAGUUUGGACUGGGCAGAGCUCAACACAGCGUGGCAAAGUGCCUGUGGCUAGACUGCCUCUCCGGAUUCCUCGUCACUCAGCAGGGCAUCUCUGAGAGGAAUGCC [G83C U104C A140G], the self-cleavage is reported as 1.93.
UACGUAGGUGGUUUUCCCCUGAUAGUGCUAAGGGGGCCUGGAAGUUUGGACUGGGCAGAGCUCAACACAGCGUGGCAAAGUGUCUGUGGCUAGGCUGCUUCUCUGGAUUCCUCGUCACUCAGCAGGGCAUCUCUGAGAGAAAUGCC [G83U A94G C99U] showed a self-cleavage of 0.11.
In the case of UACGUAGGUGGUUUUCCCCUGAUAGUGCUAAGGGGGCCUGGAAGUUUGGACUGGGCAGAGCUCAACACAGCGUGGCAAAGUGUCUGUGGCUAGACUGCCUCUCUGGAUUCCUCGUCACUCAGCAGGGCAUCUCUGAGGGAAGUGCC [G83U A138G A142G], the self-cleavage is reported as 1.06.
With UACGUAGGUGGUUUUCCCCUGAUAGUGCUAAGGGGGCCUGGAAGUUUGGACUGGGCAGAGCUCAACACAGCGUGGCAAAGUGGAUGUGGCUAGACUGCCUCUCUGGAUUCCUCGUCACUCAGCAGGGUGUCUCUGAGAGAAAUGCC [C84A C128U A129G] the self-cleavage was 0.07.
Variant UACGUAGGUGGUUUUCCCCUGAUAGUGCUAAGGGGGCCUGGAAGUUUGGACUGGGCAGAGCUCAACACAGCGUGGCAAAGUGGGUGUGGCUAGACUGCCUCUCUGGAUUCCUCGUCACUCAGCGGGGCAUCUCUGAGAGAAACGCC [C84G A124G U143C] has a self-cleavage of 0.46.
Work on UACGUAGGUGGUUUUCCCCUGAUAGUGCUAAGGGGGCCUGGAAGUUUGGACUGGGCAGAGCUCAACACAGCGUGGCAAAGUGGGUGUGGCUAGACUGCCUCUCUGGAUUCCUCGUCACACAGCAGGGCAUCUCUGAGAGAGAUGCC [C84G U119A A141G] yielded a self-cleavage of 0.1.
Variant UACGUAGGUGGUUUUCCCCUGAUAGUGCUAAGGGGGCCUGGAAGUUUGGACUGGGCAGAGCUCAACACAGCGUGGCAAAGUGGUUGUGGCUAGACUGCCUCUCUGGGUUCCUCGUCACUCAGCAGGGCAUCUCAGAGGGAAAUGCC [C84U A107G U134A A138G] has a self-cleavage of 0.15.
UACGUAGGUGGUUUUCCCCUGAUAGUGCUAAGGGGGCCUGGAAGUUUGGACUGGGCAGAGCUCAACACAGCGUGGCAAAGUGGUUGUGGCUAGACUGCCUCUCUGGAUUCCUCGUCACUCAGCCGGGCAUCUCUGGGAGAAAUGCC [C84U A124C A136G] showed a self-cleavage of 0.11.

Source: the RNAGym collection of RNA variant scans (doi:10.7554/elife.90254)
